Laboratory results: the supplement of paper PMC11417369
This is one part of the list.

The sequences below were run on PF3D7_0420300 AP2 domain 1 (GST-tagged) (assay: gcPBM binding intensity (ln(normalized median fluorescence intensity)); higher = stronger DNA binding).
Outline: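 Binding intensity is defined as the maximum Masliner-normalised natural-log median intensity across replicate spots for either probe orientation. It was measured on an Agilent 4 × 180k array of primer-extended double-stranded 36-bp intergenic genomic probes and negative controls, to which GST-tagged P. falciparum DNA-binding domains made in E. coli were applied for 1 h in 1× PBS with 1% milk, 0.2 mg/ml BSA, 0.5% salmon testes DNA and 0.03% Triton X-100. Detection was by Alexa488 anti-GST antibody and scanning at 488 nm.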

| Sequence | gcPBM binding intensity (ln) |
| --- | --- |
| TATTTATCTTTACGCACACACTTGCATGTACAAAAG [CACACA_site4753] | 9.57 |
| ATATGTATGTATTTATTATTGTGCATTGTATTTATA [CACACA_negctrl_site664] | 9.57 |
| AATACCCATATCTTCACACATACATAATAAATTATA [CACACA_site5367] | 9.4 |
| TTTGAATATTCATATGCACACAAATTAATATACATA [CACACA_site8040] | 9.3 |
| TTTATTTATGTGTGGGTGCATATACGTATGATGTAT | 9.52 |
| ATCTATATCTATAATACACACATAAATGGATATATA [CACACA_site6284] | 9.45 |
| AATGTGTACGCACGCACACACAAAAAAATATATATA [CACACA_site2913] | 9.56 |
| CAAGCCCTTCTGCTTACACACAGTAATTATTGTGCA [CACACA_site7399] | 9.51 |
| TAAATATATTTATAAGCACACACTAATAAACCAACA [CACACA_site8022] | 9.83 |
| TTATGCAATTTGTATTGTACATTCATGATATTAATA [XGTACX_site5070] | 9.05 |
| AATTATAAAAAAAAAAAAAAAAAAAAAAACTAAATG [CACACA_negctrl_site1379] | 9.28 |
| TAATAAATCAATAAATGTACATATATGTATAATTTC [XGTACX_site980] | 9.29 |
| TTTAAAAATATATTCACACAGAAATAGTAAAAGTTA [CACACA_site4587] | 9.27 |
| ATTATAACTAAATAAATGATATATAATATTTTATTT [XGTACX_negctrl_site234] | 8.91 |
| TATATATAGAAACACACACACACACCCAAGCGTAGC [CACACA_site63] | 10.2 |
| CTATATGTTAAATTCTCACACATTATTACAATTTAA [CACACA_site5979] | 9.29 |
| ACGTATTTTTAAATATATGAATTATGTAACTTGTGA [CACACA_negctrl_site1446] | 9.05 |
| TATACTATTTAAATGTGTACTAAAAGAATATATTAT [XGTACX_site5238] | 9.26 |
| GAATATGTGATATTTTGTACATAAAAATAATATATA [XGTACX_site6398] | 9.14 |
| AAAACATAAATACATACACACATAATATAGATTAAT [CACACA_site6205] | 9.99 |
| TATATACAACGTTAAGCACACACAAAAAAAATTTAA [CACACA_site9013] | 9.73 |
| CATATGTATATGACTACACACAAGGGTGTACCTATA [CACACA_site6670] | 9.48 |

| Sequence | gcPBM binding intensity (ln) |
| --- | --- |
| TTAAAAATAAATTCATGTACATAATATATATATATA [XGTACX_site7908] | 9.11 |
| TTGCATTTATTATACACACACAAAAAAATATTTATA [CACACA_site6252] | 9.6 |
| TGTTCATTTTTAAAATGTACATATATGTTGTTCCAT [XGTACX_site8444] | 9.42 |
| TTGACAGGAACGTTGGTGCACGTACTGTTTTTCTTT [GTGCAC_site9389] | 9.28 |
| TTTGGATAAAAAATATGTACACACATATAGATATCT [XGTACX_site5660] | 9.37 |
| GTATAATATTTTAATGCACACACACTAATAAAAAAA [CACACA_site8939] | 9.8 |
| AAGTATAAATAAAGGCGTACACATGTAAATTATATT [XGTACX_site126] | 9.78 |
| TAATAGATGTTATGAAGTACTAAATATTAAATATAA [XGTACX_site5717] | 9.19 |
| TTTATTTTAAATGGGTGTACTCATTCCTTATGGAAG [XGTACX_site1397] | 8.86 |
| AAAATAATTCATGTTGGTAATAAGACTCGAGGTGAA [CACACA_negctrl_site1054] | 9.4 |
| AGTAGTCTGGAGAAAAGTACATAGTATCTGATAACC [XGTACX_site2028] | 9.29 |
| TATTATAATATATTTGTGCACATAATATCTCCGCTA [GTGCAC_site9799] | 9.18 |
| AAAAAGATAAAATATACATGCATATATAATATACAT [TGCATGCA_site488] | 9.35 |
| TGCTTATATATAAATTGTACTGAAAGAATAAAATAA [XGTACX_site4025] | 8.97 |
| AAAAAAAAAAAATACACACACATATTTATTTATATA [CACACA_site7114] | 9.72 |
| AAAAAAGGTAAAAAAAGTACAAAAAAAAAATTAAAA [XGTACX_site6993] | 9.31 |
| CATTTATATATATACACACACACAAAAAAAAAAAAA [CACACA_site2645] | 9.98 |
| ATTTAACTAAAGAAGGCACACGTGTTTAAAAAAAAA [CACACA_site5241] | 9.23 |
| GACGTTATGATACACATACACACAGGGATAAAAAAT [CACACA_site2882] | 9.63 |
| AATATTATATTTTATTGTACTAATAAAAATATATGC [XGTACX_site5435] | 9.02 |
| TTTTTTTTTTTTTTTTGTACTTAAAAATTTATATAA [XGTACX_site7718] | 8.45 |
| TATATATATATATATGCATGTACATATATTTGTTAT [TGCATGCA_site379] | 9.57 |
